Measurements as given in PubChem BioAssay AID504333 (National Center for Advancing Translational Sciences (NCATS), 2011).
The campaign covered roughly 360,000 compounds. About 16,000 (4.4%) were called active. This list was built around the results that the source calls inconclusive (neither active nor inactive); the mix of calls is not that of the screen. Calls follow the shape of the dose curve; as a rule, active = well fitted inhibition curve with a large enough effect; inconclusive = small, poorly fitted or top-dose-only effect; inactive = no such curve, though single readings can be large or run the other way. Where the call is inconclusive, the potency comes from a doubtful curve fit.

molecular target: Bromodomain adjacent to zinc finger domain protein 2B (Homo sapiens) (UniProt Q9UIF8); assay: qHTS Assay for Inhibitors of BAZ2B; settings: AlphaScreen BAZ2B-H3K14Ac peptide displacement; series mostly up to 114 µM; also: nearly all actives have a fitted effect of over 60% in size
Chain of UniProt Q9UIF8 (Q9UIF8 whole entry, looked up, the tested form may be a part): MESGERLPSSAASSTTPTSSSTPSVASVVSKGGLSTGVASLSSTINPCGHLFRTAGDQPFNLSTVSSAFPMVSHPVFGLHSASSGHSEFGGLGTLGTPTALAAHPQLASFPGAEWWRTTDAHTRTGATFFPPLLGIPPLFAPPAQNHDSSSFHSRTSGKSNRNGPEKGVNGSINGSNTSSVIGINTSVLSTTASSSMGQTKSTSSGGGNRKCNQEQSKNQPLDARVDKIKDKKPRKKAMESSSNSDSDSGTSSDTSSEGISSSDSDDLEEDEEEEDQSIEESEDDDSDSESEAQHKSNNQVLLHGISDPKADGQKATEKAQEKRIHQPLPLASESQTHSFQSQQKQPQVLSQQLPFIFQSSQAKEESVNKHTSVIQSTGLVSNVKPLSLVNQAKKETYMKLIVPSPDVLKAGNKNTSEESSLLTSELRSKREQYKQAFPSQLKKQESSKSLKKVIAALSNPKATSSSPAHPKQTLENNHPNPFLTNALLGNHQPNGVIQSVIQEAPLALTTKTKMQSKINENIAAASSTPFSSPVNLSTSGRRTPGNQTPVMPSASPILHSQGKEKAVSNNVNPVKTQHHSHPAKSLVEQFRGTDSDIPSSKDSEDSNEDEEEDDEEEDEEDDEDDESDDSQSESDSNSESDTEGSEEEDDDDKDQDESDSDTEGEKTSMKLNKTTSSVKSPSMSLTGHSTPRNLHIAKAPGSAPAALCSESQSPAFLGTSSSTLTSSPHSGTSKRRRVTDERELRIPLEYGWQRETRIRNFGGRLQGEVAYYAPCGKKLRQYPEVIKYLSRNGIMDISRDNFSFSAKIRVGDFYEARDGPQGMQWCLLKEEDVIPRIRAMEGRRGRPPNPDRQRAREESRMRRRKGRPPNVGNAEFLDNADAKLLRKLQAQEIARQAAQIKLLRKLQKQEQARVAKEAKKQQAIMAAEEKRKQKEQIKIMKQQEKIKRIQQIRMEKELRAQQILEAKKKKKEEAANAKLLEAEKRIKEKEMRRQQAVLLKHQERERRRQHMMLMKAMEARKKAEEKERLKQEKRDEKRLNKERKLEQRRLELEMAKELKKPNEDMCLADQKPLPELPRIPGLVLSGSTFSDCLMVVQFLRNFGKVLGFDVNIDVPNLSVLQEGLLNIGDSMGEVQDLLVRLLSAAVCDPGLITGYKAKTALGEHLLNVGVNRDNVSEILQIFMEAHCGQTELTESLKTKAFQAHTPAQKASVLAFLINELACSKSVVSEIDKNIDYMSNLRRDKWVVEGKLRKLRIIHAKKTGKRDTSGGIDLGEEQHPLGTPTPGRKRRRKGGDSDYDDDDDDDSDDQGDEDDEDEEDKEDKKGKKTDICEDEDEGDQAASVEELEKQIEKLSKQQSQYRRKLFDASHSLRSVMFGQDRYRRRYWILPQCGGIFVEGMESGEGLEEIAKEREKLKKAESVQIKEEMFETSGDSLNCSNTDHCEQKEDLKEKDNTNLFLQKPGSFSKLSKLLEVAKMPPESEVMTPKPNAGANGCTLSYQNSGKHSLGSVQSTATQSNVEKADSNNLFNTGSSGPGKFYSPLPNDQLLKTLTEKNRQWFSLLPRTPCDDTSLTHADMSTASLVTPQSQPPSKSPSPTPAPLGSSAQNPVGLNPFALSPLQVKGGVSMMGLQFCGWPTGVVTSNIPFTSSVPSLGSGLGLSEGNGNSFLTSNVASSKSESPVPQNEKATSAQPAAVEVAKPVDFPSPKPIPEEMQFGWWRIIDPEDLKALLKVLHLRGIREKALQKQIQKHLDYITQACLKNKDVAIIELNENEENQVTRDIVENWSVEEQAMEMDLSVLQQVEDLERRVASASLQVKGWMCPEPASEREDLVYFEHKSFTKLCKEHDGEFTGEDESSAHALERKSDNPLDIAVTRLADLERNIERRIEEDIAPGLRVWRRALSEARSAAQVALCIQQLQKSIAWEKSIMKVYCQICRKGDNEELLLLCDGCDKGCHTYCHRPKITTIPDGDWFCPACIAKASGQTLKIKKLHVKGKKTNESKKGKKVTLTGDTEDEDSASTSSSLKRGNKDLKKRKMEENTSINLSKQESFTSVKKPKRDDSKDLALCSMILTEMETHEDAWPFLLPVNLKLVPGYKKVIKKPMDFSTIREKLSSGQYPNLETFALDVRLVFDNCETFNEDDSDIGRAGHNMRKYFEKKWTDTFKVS
Procedure, shortened: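 AlphaScreen displacement of biotin-H3(5-23)K14Ac peptide (50 nM final) from BAZ2B (50 nM final) in PBS pH 7.4, 0.01% Tween-20; complex preformed 30 min RT, then compounds (top 110 uM) 30 min RT, beads 20 min dark.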
Potency is read from the fitted curve at half-maximal effect; tags tell the direction and shape of the fitted curve.

| SMILES | Potency |
| --- | --- |
| COc1cc2ncnc(NCc3cc(F)ccc3F)c2cc1OC | inactive |
| Cc1ccc(C2=C(O)c3ccccc3C(=O)C2=O)cc1 | inconclusive: 89.1 µM [inhibitor, single point] |
| COc1ccc(C(=O)Nc2ccc(/C(C)=N/NC(=O)c3ccccc3O)cc2)cc1OC | inactive |
| C=CCOC(=O)/C(=C/c1ccco1)NC(=O)/C=C/c1ccccc1 | inconclusive: 7.08 µM [inhibitor, single point] |
| COc1ccccc1NC(=S)NCC1CCC(CNC(=S)Nc2ccccc2OC)CC1 (centres undefined) | inconclusive: 79.4 µM [inhibitor, single point] |
| c1ccc(Nc2ccccn2)nc1 | inconclusive: 89.1 µM [inhibitor, single point] |
| C=C1N(C)c2cc([N+](=O)[O-])c(N)cc2C1(C)C | active: 44.7 µM |
| Cc1noc(NS(=O)(=O)c2ccc(NC(=O)COc3ccc(Cl)cc3Cl)cc2)c1C | inconclusive: 89.1 µM [inhibitor, single point] |
| CN(CCOc1ccccc1)CC(O)COc1ccccc1 (centres undefined) | inactive |
| O=C(CSc1ccc(F)cc1)Nc1nnc(-c2ccco2)o1 | active: 35.5 µM |
| O=C(Cn1cccc1)N1CCN(C(c2ccccc2)c2ccccc2)CC1 | inconclusive: 89.1 µM [inhibitor, single point] |
| CCCCn1c(=O)nc2n(-c3ccccc3)c3ccccc3cc-2c1=O | inconclusive: 89.1 µM [inhibitor, single point] |
| CCCOCc1cc(CN2CCN(c3cccc(Cl)c3)CC2)c(O)c2ncccc12 | active: 31.6 µM |
| COc1ccc(Nc2cc(C(=O)NCCCN(C)c3ccccc3)c3ccccc3n2)c(OC)c1 | inconclusive: 11.2 µM [inhibitor, full curve] |
| O=C(Cn1nnc2ccccc21)NNC(=S)NC1CCCCC1 | inactive |
| Cc1cnnn1-c1ccc(C(=O)CCl)cc1 | inconclusive: 100 µM [inhibitor, single point] |
| COc1cc(/C=C2/C(=O)NN(c3ccc(F)cc3)C2=O)cc([N+](=O)[O-])c1O | active: 39.8 µM |
| Cn1c(O)c(C(C#N)=C2N=c3ccccc3=N2)c2ccccc21 | inconclusive: 39.8 µM [inhibitor, partial curve] |
| c1ccc(C2(CN3CCNC[C@H]3Cc3cccc4ccccc34)CC2)cc1 | inconclusive: 50.1 µM [inhibitor, partial curve] |
| COc1cc(OC)c(CN2CCc3c([nH]c4ccccc34)C2)cc1Br | inconclusive: 50.1 µM [inhibitor, partial curve] |
| Cc1ccc(C(=O)C2CCN(CC(=O)N3CCN(c4ccc(F)cc4)CC3)CC2)cc1 | inconclusive: 31.6 µM [inhibitor, full curve] |
| CCc1ccccc1NS(=O)(=O)c1ccc(-c2coc(C)n2)cc1 | inconclusive: 79.4 µM [inhibitor, single point] |

| SMILES | Potency |
| --- | --- |
| CS/C(=N\S(=O)(=O)c1cccs1)NC(=O)CSc1nc2ccccc2s1 | inconclusive: 89.1 µM [inhibitor, single point] |
| O=[N+]([O-])c1ccccc1S(=O)(=O)NCc1cccnc1 | inactive |
| COc1ccc([N+](=O)[O-])cc1NCc1ccco1 | inconclusive: 44.7 µM [inhibitor, partial curve] |
| CCOc1ccccc1OCCCC(=O)N1CCN(S(=O)(=O)c2cccc(F)c2)CC1 | inconclusive: 3.55 µM [inhibitor, single point] |
| Cc1ccccc1N(CC(=O)NC(C)(C)C)C(=O)CCC(=O)Nc1nccs1 | inconclusive: 89.1 µM [inhibitor, single point] |
| CC/C(O)=C1\C(=O)CCCC1=NCCc1c(C)[nH]c2ccc(C)cc12 | inconclusive: 44.7 µM [inhibitor, partial curve] |
| CN1C(=O)/C(=C/c2ccc(C(=O)Nc3ccc(O)cc3C(=O)O)cc2)SC1=S | active: 22.4 µM |
| COc1ccc(C2NC(=S)N(c3ccccc3)C(C)=C2C(=O)Nc2ccccc2)cc1 (centres undefined) | inactive |
| CCc1nnc(NS(=O)(=O)c2ccc(N=Cc3c(C)[nH]n(-c4cccc(Cl)c4)c3=O)cc2)s1 | inconclusive: 79.4 µM [inhibitor, single point] |
| FC(F)Oc1ccc(/C=N/N2CCCCC2)c(OC(F)F)c1 | inconclusive: 39.8 µM [inhibitor, partial curve] |
| CC(=C\c1ccccc1)/C=C1/SC(=S)N(CCCC(=O)O)C1=O | inconclusive: 56.2 µM [inhibitor, partial curve] |
| CC(C)(C)c1ccc(OCC(=O)Nc2ccc(C(=O)Nc3ccccc3C(=O)O)cc2)cc1 | inconclusive: 79.4 µM [inhibitor, partial curve] |
| O=C(Nc1ccc2c(c1)OCO2)C1CCN(C(=O)c2ccc(Cl)cc2)CC1 | inconclusive: 89.1 µM [inhibitor, single point] |
| CN(C)CCCNCCCNC(=O)/C(=N\O)c1ccccn1 | active: 50.1 µM |
| O=C(CSc1cccc[n+]1[O-])c1cc2ccccc2o1 | inconclusive: 50.1 µM [inhibitor, partial curve] |
| COc1ccc(C(=O)COC(=O)c2ccc3c(c2)OCO3)c(OC)c1 | inconclusive: 89.1 µM [inhibitor, single point] |
| Cn1c(C(=O)N2CCCC(C(=O)NCCCSC3CCCCC3)C2)cc2sccc21 (centres undefined) | inconclusive: 44.7 µM [inhibitor, partial curve] |
| COCCn1c(C)cc(C(=O)COC(=O)c2cccc(O)c2)c1C | inconclusive: 50.1 µM [inhibitor, partial curve] |
| O=S(=O)(c1ccc(Cl)c(NC(=S)N/N=C/c2ccc(O)cc2)c1)N1CCOCC1 | inactive |
| OCCNc1ncnc2c1c(-c1ccccc1)c(-c1ccccc1)n2Cc1ccco1 | active: 50.1 µM |
| CCOc1ccc(-n2c(C)cc(/C=N/NC(=O)C(N)=O)c2C)cc1 | inconclusive: 56.2 µM [inhibitor, partial curve] |
| O=C(Nc1nc2ccccc2[nH]1)c1ccccc1[N+](=O)[O-] | inconclusive: 50.1 µM [inhibitor, partial curve] |
